# Test results: ChEMBL document CHEMBL4888484, “Replenishing the malaria drug discovery pipeline: Screening and hit evaluation of the MMV Hit Generation Library 1 (HGL1) against asexual blood stage Plasmodium falciparum ,using a nano luciferase reporter read-out” (2022)
# Screen size: about 150,000 compounds; about 540 (0.36%) showed an effect of 50% or more. Some of the results follow.
# Tested on: Plasmodium falciparum
# Assay: Primary screen in NF54 nanoGlo assay, in single point, at 2uM, 72h; a lower Z score goes with more inhibition
# Type: functional, Erythrocyte
# Settings: timepoint 72 hour
Compound,% Inhibition [%],Z score
Cc1cnc(N2C[C@@H]3OC(=O)N(CCCN4CCOCC4)[C@@H]3C2)nc1N,-14,2.76
COCCNc1nc(-c2cccc(Cl)c2)c2c(N)n(-c3cccc(C)c3)nc2n1,-5,0.69
CCc1c(C)nn(CCNc2ncnc3c2c(C)nn3C)c1C,-12,2.4
CCN(C[C@H]1CCOC1)C(=O)Cn1c(=O)n(C)c2ccccc21,8,-1.29
CCc1nnsc1C(=O)N1CCc2[nH]nc(-c3cccc(OC)c3)c2C1,-15,1.42
CC(C)C[C@H]1C(=O)NC(c2cc3n(n2)CCC3)N1C (some centres not stated),-13,2.01
CCC(C)N(CC1CN(C(=O)c2cccs2)CCO1)C(=O)c1ccccc1OC (configuration not stated),-4,0.63
CC(CN1CCN(c2ccccc2)CC1)NC(=O)C1CCCCN1C (configuration not stated),8,-1.06
CCCN1CCN(c2ncc(C#N)c(N)n2)CC1=O,-16,1.51
CC(C)Cc1noc([C@@H](C)NC(=O)OC(C)(C)C)n1,-6,0.58
NC(=O)c1c(Cl)cccc1NCc1noc(Cc2ccccc2)n1,33,-4.41
Cc1cc(C(=O)N2CC[C@@H](N)C2)c2ccc(Br)cc2n1,-1,0.12
Cc1cnc(C(=O)NC[C@H]2Cn3cccc3C(=O)N2C)cn1,-9,1.77
Nc1nc(-c2cccnc2)nc(-c2cccnc2)n1,-17,2.13
Cc1cscc1NC(=O)NCCc1cn[nH]c1,0,0.05
Cc1scc(C(=O)N[C@@H](C(=O)O)C(C)C)c1C,-9,1.16
CC(C)CCn1c(=O)c2sccc2n(CC(=O)NC[C@H]2CCCO2)c1=O,27,-3.09
CC(NC(=O)Nc1ccccc1)C(c1cccs1)N1CCN(c2ccccc2)CC1 (configuration not stated),-5,0.83
Cc1cc(C(=O)Nc2ccc(CCN3CCC(O)CC3)cc2)no1,-4,0.77
CC1CN(C(=O)c2[nH]nc(C3CC3)c2Br)CC(C)O1 (configuration not stated),15,-1.71
COCCCC(C)C(=O)N1CCCC(N2CCCCC2)C1 (configuration not stated),-11,1.41
CC1CC(C(=O)N2CCc3cc(Cl)c(Cl)cc3C2C)CCO1 (configuration not stated),-8,0.96

Compound,% Inhibition [%],Z score
O=C(NCc1ccc(F)cc1)N1CCC2(CC1)[C@H](O)C[C@@H]2O,-5,1.06
Cn1ccc2cc([C@@H](O)CNC(=O)NC3CCCC3)ccc21,-18,2.36
Oc1ccc([C@@H](O)Cn2cc(-c3cc(CN4CCCC4)cs3)nn2)cc1,-22,2.81
CCn1cc(C(=O)NC2CCN(c3ccc(Cl)cc3)CC2)nn1,-4,0.57
CC(=O)Nc1cccc(Nc2nc(C)nc3c2CCC3)c1,10,-1.79
CC(C)CN(C)C(=O)C[C@H]1C(=O)NCCN1C,-9,1.69
COc1c(F)cc(CN2C[C@@H](CN3CCCCC3)[C@@H](CO)C2)cc1Cl,-9,1.4
COc1ccc(OC)c(S(=O)(=O)N2CCCCCCC2)c1,-15,1.93
CCCc1ccc(-c2nccn2CCN2CCCC2=O)o1,0,0
CC(=O)N[C@H]1C[C@H]2CN(C(=O)c3sc(C)nc3C)[C@@H](CC(C)C)C(=O)N2C1,-6,0.8
O=C(O)c1cccc(-c2nc(-c3cscn3)cs2)c1,-13,1.37
Cc1nn(C(C)(C)C)c2nc(C3CC3)cc(C(=O)N(C)c3ccccc3)c12,55,-8.04
CCOc1ccc(C(=O)NCc2nc(COC)no2)o1,3,-0.57
CN(C)C(=O)c1cccc(NC2CCS(=O)(=O)CC2)n1,-7,0.85
NC(=O)N1CCCC(C(=O)N2CCCC2c2ccc(F)c(F)c2)C1 (configuration not stated),0,0.02
Cc1ccc(CNC(=O)[C@@H](C)C2CCN(C(=O)c3cc4ccccc4[nH]3)CC2)o1,-11,1.04
Cc1ccccc1S(=O)(=O)N1CCC[C@@]2(C1)Nc1cccnc1N=C2NC1CCCC1,32,-3.66
c1cc2c(cc1-c1nnc3n1CCOC3)OCCO2,2,-0.22
Cc1ccccc1OCC(=O)NS(C)(=O)=O,-1,0.11
CCN(CC(=O)NCc1cccs1)C(=O)c1cccn1C,-3,0.49
Cc1nscc1C(=O)Nc1ccnn1Cc1ccsc1,-5,0.47
COc1ccc(NS(=O)(=O)c2ccc(Cl)c(NC(=O)COc3ccc4ccccc4c3)c2)cc1Br,-6,0.79

Compound,% Inhibition [%],Z score
Cc1ccc(-n2ncc3c(N)c4c(nc32)CC(C)(C)CC4=O)cc1C,-22,2.89
Cc1nc2c(C(=O)N3CCOCC34CC4)cccc2o1,8,-0.99
COc1cccc(NC(=O)NCCc2cn[nH]c2)n1,-1,0.23
CC(C)N(C)CC(=O)N1CCC[C@@]2(CCC(=O)N(Cc3cccnc3)C2)C1,-18,2.82
O=C(c1cccnc1)N1N=C2CCCCC2C1(O)C(F)(F)F (configuration not stated),-7,1.3
C[C@@H](CCc1ccccc1)NC(=O)NCCc1ccco1,-5,0.6
CC(=O)N(C(=O)c1ccccc1)[C@H]1[C@@H](OCc2ccccc2)O[C@@H]2COC(c3ccccc3)O[C@H]2[C@@H]1OC(=O)c1ccccc1 (some centres not stated),-15,2.74
CCCn1cnnc1CN(C)C(=O)NCc1csc2c1CCCC2,1,-0.21
C[C@H]1Cc2ccccc2N1C(=O)c1cnns1,-4,0.86
Cc1nc(Nc2ccc(F)cn2)sc1C(=O)NC1CC1,-5,0.85
OC[C@]1(F)CCN(Cc2nc3ccc(F)cc3o2)C1,21,-2.57
O=C(c1cc(-c2ccccc2)[nH]n1)N1CCN(c2cnccn2)CC1,-5,0.92
CCCN1C[C@@H](CNC(=O)NCc2ccc3occc3c2)CC1=O,-1,0.25
CCc1csc(NC2CC[C@@H](O)[C@@H](O)C2)n1 (some centres not stated),-5,0.82
COc1ccc(O[C@H]2COCCN(C(=O)CC(C)(C)C)C2)cc1,-2,0.44
CCc1ccccc1NC(=O)N1CCC(n2cnc3cccnc32)CC1,-12,1.59
C[C@](O)(CNc1nc(C2CCOCC2)ns1)c1cccc(F)c1,-12,2.32
CCc1cc(C(=O)N[C@@H](C)Cn2cccn2)sc1C,-6,1.04
O=C(N[C@@H](C1CCCC1)C(F)(F)F)C1CCC(F)(F)CC1,-8,0.81
O=C(c1c[nH]nc1-c1ccsc1)N1CC[C@@H](O)C1,-6,0.89
CCn1nncc1CN1C[C@H](C)Oc2c(Cl)cccc21,0,-0.07
C[C@H](O)c1nc(C2CCOCC2)nn1-c1ccc2c(c1)CCC2,9,-1.13

Compound,% Inhibition [%],Z score
O=C(O)c1cc(NS(=O)(=O)c2cc(F)ccc2F)ccc1N1CCN(C2CCCCC2)CC1,-1,0.08
CCc1cnc(CN2CCC[C@H](c3noc(C(C)C)n3)C2)o1,-3,0.23
Cc1n[nH]cc1CN(C)Cc1ccnc2ccccc12,-2,0.33
Cc1ccc(-c2nn(-c3nc(-c4ccccc4)cc(C(F)(F)F)n3)c(-c3ccc(C)cc3)c2Cl)cc1,33,-3.78
COc1cccc(CNc2ccc3nn[nH]c3c2)c1O,-11,1.36
CCn1cnnc1CNC(=O)[C@@H]1CCCN1C(=O)OC(C)(C)C,-6,0.94
Brc1cnn(CCn2cccn2)c1,-11,1.3
Cc1ccc(N2C[C@@H](c3nc(CCS(=O)(=O)c4ccccc4)no3)CC2=O)cc1,-9,0.88
CCC(=O)Nc1ccc(Oc2c(C)c(C(=O)O)nn2C(C)(C)C)c(S(=O)(=O)N[C@@H](C)CC)c1,-11,1.03
CO[C@@H](C)c1nc(C)c(-c2nc(-c3ccc(C(N)=O)cc3)no2)s1,-10,1.13
Cc1ocnc1C(=O)N1CCN(Cc2ccccc2)[C@@H]2CS(=O)(=O)C[C@@H]21,-7,1.31
CCC#CCN1CC=C(CNC(=O)c2cccc(OC)c2)CC1,-16,2.33
C[C@@H]1Oc2ccc(C(=O)C3CCN(c4cccc(C(=O)O)n4)CC3)cc2NC1=O,-8,1.54
O=C(Cc1ccccc1)N1C[C@H](c2ncco2)C2(CCN(CC3CC3)CC2)C1,-3,0.45
CCc1nn(Cc2nnsc2Cl)c(=O)c(C#N)c1CC,-15,2.84
CN(C(=O)CCS(C)(=O)=O)c1ccc(Cl)cn1,-4,0.53
C=C(C)COc1ccccc1C(=O)N1CCC[C@@]2(CCNC2)C1,-15,1.44
CN(Cc1ccccc1)c1ncccc1CNc1ncccc1C(=O)O,-1,0.2
CCN(C[C@H](C)C#N)S(=O)(=O)N(C)Cc1cc(C)ccc1F,-2,0.33
CCCC1CCC(c2nc(-c3cccnc3)no2)CC1 (configuration not stated),4,-0.51
